The supplement of paper PMC12230231

Tested on: SIVsab (simian immunodeficiency virus of sabaeus monkeys), single-cycle GFP reporter, in CRFK cells
Experiment: enrichment among infected cells over input (fold); higher = weaker restriction
Conditions: library: human / rhesus combinations
Description: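 Pools of CRFK cells expressing variants of the TRIM5α v1 loop were challenged with the single-cycle reporter, sorted by GFP and sequenced; mean of two replicates.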

Sequence	enrichment
MASGILLNVKEEVTCPICLELLTEPLSLHCGHSFCQACITANHKKSMLYKEGERSCPVCRISYQPENIQPNRHVANIVEKLREVKLSPEEGQKVDHCARHGEKLLLFCQEDSKVICWLCERSQEHRGHHTFLMEEVAQEYHVKLQTALEMLRQKQQEAEKLEADIREEKASWKIQIDYDKTNVSADFEQLREILDWEESNELQNLEKEEEDILKSLTKSETEMVQQTQYMRELISELEHRLQGSMMDLLQGVDGIIKRIENMTLKKPKTFHKNQRRVFRAPDLKGMLDMFRELTDARRYWVDVTLAPNNISHAVIAEDKRQVSSRNPQIMYQAPGTLFTFQTLVNFNYCTGVLGSQSITSGKHYWEVDVSKKSAWILGVCAGFQSDAMYNIEQNENYQPKYGYWVIGLQEGVKYSVFQDGSSHTPFAPFIVPLSVIICPDRVGVFVDYEACTVSFFNITNHGFLIYKFSQCSFSKPVFPYLNPRKCTVPMTLCSPSS [rhesus TRIM5α, 332-344 = QAPGTLFTFQTLV]	1.16 ± 0.65
MASGILLNVKEEVTCPICLELLTEPLSLHCGHSFCQACITANHKKSMLYKEGERSCPVCRISYQPENIQPNRHVANIVEKLREVKLSPEEGQKVDHCARHGEKLLLFCQEDSKVICWLCERSQEHRGHHTFLMEEVAQEYHVKLQTALEMLRQKQQEAEKLEADIREEKASWKIQIDYDKTNVSADFEQLREILDWEESNELQNLEKEEEDILKSLTKSETEMVQQTQYMRELISELEHRLQGSMMDLLQGVDGIIKRIENMTLKKPKTFHKNQRRVFRAPDLKGMLDMFRELTDARRYWVDVTLAPNNISHAVIAEDKRQVSSRNPQIMYGAPGTRYTFQTFVNFNYCTGVLGSQSITSGKHYWEVDVSKKSAWILGVCAGFQSDAMYNIEQNENYQPKYGYWVIGLQEGVKYSVFQDGSSHTPFAPFIVPLSVIICPDRVGVFVDYEACTVSFFNITNHGFLIYKFSQCSFSKPVFPYLNPRKCTVPMTLCSPSS [rhesus TRIM5α, 332-344 = GAPGTRYTFQTFV]	1.69 ± 0.91
MASGILLNVKEEVTCPICLELLTEPLSLHCGHSFCQACITANHKKSMLYKEGERSCPVCRISYQPENIQPNRHVANIVEKLREVKLSPEEGQKVDHCARHGEKLLLFCQEDSKVICWLCERSQEHRGHHTFLMEEVAQEYHVKLQTALEMLRQKQQEAEKLEADIREEKASWKIQIDYDKTNVSADFEQLREILDWEESNELQNLEKEEEDILKSLTKSETEMVQQTQYMRELISELEHRLQGSMMDLLQGVDGIIKRIENMTLKKPKTFHKNQRRVFRAPDLKGMLDMFRELTDARRYWVDVTLAPNNISHAVIAEDKRQVSSRNPQIMYQARGTRFTFPSLVNFNYCTGVLGSQSITSGKHYWEVDVSKKSAWILGVCAGFQSDAMYNIEQNENYQPKYGYWVIGLQEGVKYSVFQDGSSHTPFAPFIVPLSVIICPDRVGVFVDYEACTVSFFNITNHGFLIYKFSQCSFSKPVFPYLNPRKCTVPMTLCSPSS [rhesus TRIM5α, 332-344 = QARGTRFTFPSLV]	0.779 ± 0.32
MASGILLNVKEEVTCPICLELLTEPLSLHCGHSFCQACITANHKKSMLYKEGERSCPVCRISYQPENIQPNRHVANIVEKLREVKLSPEEGQKVDHCARHGEKLLLFCQEDSKVICWLCERSQEHRGHHTFLMEEVAQEYHVKLQTALEMLRQKQQEAEKLEADIREEKASWKIQIDYDKTNVSADFEQLREILDWEESNELQNLEKEEEDILKSLTKSETEMVQQTQYMRELISELEHRLQGSMMDLLQGVDGIIKRIENMTLKKPKTFHKNQRRVFRAPDLKGMLDMFRELTDARRYWVDVTLAPNNISHAVIAEDKRQVSSRNPQIMYGARGTLYTFQTLTNFNYCTGVLGSQSITSGKHYWEVDVSKKSAWILGVCAGFQSDAMYNIEQNENYQPKYGYWVIGLQEGVKYSVFQDGSSHTPFAPFIVPLSVIICPDRVGVFVDYEACTVSFFNITNHGFLIYKFSQCSFSKPVFPYLNPRKCTVPMTLCSPSS [rhesus TRIM5α, 332-344 = GARGTLYTFQTLT]	1.79 ± 1.4
MASGILLNVKEEVTCPICLELLTEPLSLHCGHSFCQACITANHKKSMLYKEGERSCPVCRISYQPENIQPNRHVANIVEKLREVKLSPEEGQKVDHCARHGEKLLLFCQEDSKVICWLCERSQEHRGHHTFLMEEVAQEYHVKLQTALEMLRQKQQEAEKLEADIREEKASWKIQIDYDKTNVSADFEQLREILDWEESNELQNLEKEEEDILKSLTKSETEMVQQTQYMRELISELEHRLQGSMMDLLQGVDGIIKRIENMTLKKPKTFHKNQRRVFRAPDLKGMLDMFRELTDARRYWVDVTLAPNNISHAVIAEDKRQVSSRNPQIMYQAPGTRYTFQSLTNFNYCTGVLGSQSITSGKHYWEVDVSKKSAWILGVCAGFQSDAMYNIEQNENYQPKYGYWVIGLQEGVKYSVFQDGSSHTPFAPFIVPLSVIICPDRVGVFVDYEACTVSFFNITNHGFLIYKFSQCSFSKPVFPYLNPRKCTVPMTLCSPSS [rhesus TRIM5α, 332-344 = QAPGTRYTFQSLT]	1.9 ± 0.51
MASGILLNVKEEVTCPICLELLTEPLSLHCGHSFCQACITANHKKSMLYKEGERSCPVCRISYQPENIQPNRHVANIVEKLREVKLSPEEGQKVDHCARHGEKLLLFCQEDSKVICWLCERSQEHRGHHTFLMEEVAQEYHVKLQTALEMLRQKQQEAEKLEADIREEKASWKIQIDYDKTNVSADFEQLREILDWEESNELQNLEKEEEDILKSLTKSETEMVQQTQYMRELISELEHRLQGSMMDLLQGVDGIIKRIENMTLKKPKTFHKNQRRVFRAPDLKGMLDMFRELTDARRYWVDVTLAPNNISHAVIAEDKRQVSSRNPQIMYGAPGTRYTFPTFTNFNYCTGVLGSQSITSGKHYWEVDVSKKSAWILGVCAGFQSDAMYNIEQNENYQPKYGYWVIGLQEGVKYSVFQDGSSHTPFAPFIVPLSVIICPDRVGVFVDYEACTVSFFNITNHGFLIYKFSQCSFSKPVFPYLNPRKCTVPMTLCSPSS [rhesus TRIM5α, 332-344 = GAPGTRYTFPTFT]	1.03 ± 0.37
MASGILLNVKEEVTCPICLELLTEPLSLHCGHSFCQACITANHKKSMLYKEGERSCPVCRISYQPENIQPNRHVANIVEKLREVKLSPEEGQKVDHCARHGEKLLLFCQEDSKVICWLCERSQEHRGHHTFLMEEVAQEYHVKLQTALEMLRQKQQEAEKLEADIREEKASWKIQIDYDKTNVSADFEQLREILDWEESNELQNLEKEEEDILKSLTKSETEMVQQTQYMRELISELEHRLQGSMMDLLQGVDGIIKRIENMTLKKPKTFHKNQRRVFRAPDLKGMLDMFRELTDARRYWVDVTLAPNNISHAVIAEDKRQVSSRNPQIMYQAPGTRFPSFVNFNYCTGVLGSQSITSGKHYWEVDVSKKSAWILGVCAGFQSDAMYNIEQNENYQPKYGYWVIGLQEGVKYSVFQDGSSHTPFAPFIVPLSVIICPDRVGVFVDYEACTVSFFNITNHGFLIYKFSQCSFSKPVFPYLNPRKCTVPMTLCSPSS [rhesus TRIM5α, 332-344 = QAPGTRFPSFV]	1.59 ± 0.71
MASGILLNVKEEVTCPICLELLTEPLSLHCGHSFCQACITANHKKSMLYKEGERSCPVCRISYQPENIQPNRHVANIVEKLREVKLSPEEGQKVDHCARHGEKLLLFCQEDSKVICWLCERSQEHRGHHTFLMEEVAQEYHVKLQTALEMLRQKQQEAEKLEADIREEKASWKIQIDYDKTNVSADFEQLREILDWEESNELQNLEKEEEDILKSLTKSETEMVQQTQYMRELISELEHRLQGSMMDLLQGVDGIIKRIENMTLKKPKTFHKNQRRVFRAPDLKGMLDMFRELTDARRYWVDVTLAPNNISHAVIAEDKRQVSSRNPQIMYQARGTRYTFPSFTNFNYCTGVLGSQSITSGKHYWEVDVSKKSAWILGVCAGFQSDAMYNIEQNENYQPKYGYWVIGLQEGVKYSVFQDGSSHTPFAPFIVPLSVIICPDRVGVFVDYEACTVSFFNITNHGFLIYKFSQCSFSKPVFPYLNPRKCTVPMTLCSPSS [rhesus TRIM5α, 332-344 = QARGTRYTFPSFT]	1.21 ± 0.57

± gives the standard deviation of the averaged measurements. Restriction of a single-cycle SIVsab GFP reporter by TRIM5α v1-loop variants in CRFK cells. Human variants: read share among cells still uninfected after two challenges over input, higher = gained restriction. Rhesus variants: share among infected cells over input, higher = lost restriction. Reporter dose not given per row. No active / inactive call per row; the paper calls a change when both replicates lie above its controls (mean + 2 SD of stop or wild-type variants, or the top frameshift score). Residues outside the varied loop are taken from Swiss-Prot. The paper reads the human single-substitution scores as noise; they and the rhesus combinations repeat poorly (rank correlation 0.3 to 0.4), indel scores repeat only for the top variants, rhesus substitutions well (0.9).
